# Measured values published in PubChem BioAssay AID624417 (National Center for Advancing Translational Sciences (NCATS), 2012).
# Hit rate of the full screen: of about 410,000 compounds, about 6,400 (1.6%) were called active. Inconclusive means that the source gave no clear call. Such entries were picked first, then a sample of the others. The call rests on the fitted dose curve; in most records, active means well fitted inhibition curve with a large enough effect; inconclusive means small, poorly fitted or top-dose-only effect; inactive means no such curve, though single readings can be large or run the other way. No potency is given beside an inconclusive call; the fits are too rough.
# Target: Glucagon-like peptide 1 receptor (Homo sapiens) (UniProt P43220)
# Experiment: qHTS of GLP-1 Receptor Inverse Agonists (Inhibition Mode); further: nearly all actives have a fitted effect of over 55% in size
# Conditions: HEK293 GLP-1R CRE-luciferase, luminescence, 24 h, GLP-1R form is constitutively active; series mostly up to 38.3 µM
# How it was run: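 Inverse agonism was detected as reduced cAMP-driven luciferase luminescence after 24 h compound treatment. The cells were HEK293 clones expressing constitutively active human GLP-1R with the reporter. Reporter-only and GPR119 cell lines served as counterscreen controls.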
# Potency means the concentration at half of the fitted maximal effect; tags describe the fitted curve by direction and shape.
# Chain of UniProt P43220 (P43220 whole entry, looked up): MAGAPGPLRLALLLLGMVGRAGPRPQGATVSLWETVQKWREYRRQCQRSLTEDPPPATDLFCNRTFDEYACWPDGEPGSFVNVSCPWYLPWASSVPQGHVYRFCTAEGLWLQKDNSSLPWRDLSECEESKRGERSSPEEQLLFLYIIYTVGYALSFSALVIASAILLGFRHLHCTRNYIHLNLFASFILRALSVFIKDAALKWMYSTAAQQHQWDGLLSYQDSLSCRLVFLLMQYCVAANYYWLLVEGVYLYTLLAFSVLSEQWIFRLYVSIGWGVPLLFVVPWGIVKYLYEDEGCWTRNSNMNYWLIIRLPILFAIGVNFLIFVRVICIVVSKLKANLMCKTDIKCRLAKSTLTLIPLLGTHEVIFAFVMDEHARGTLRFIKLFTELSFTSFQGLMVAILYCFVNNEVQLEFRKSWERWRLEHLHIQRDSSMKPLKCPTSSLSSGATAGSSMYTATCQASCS
row,SMILES,Potency
1,O=C(Nc1ccc(F)cc1)c1cn(-c2ccccc2)nc1-c1ccncc1,"inconclusive [inhibitor, partial curve, poor fit]"
2,Cc1ccc(-c2nc(C)c(CCNC(=O)C(=O)Nc3cc(C)ccc3C)s2)cc1,inactive
3,Cc1csc2nc(-c3ccc(NS(=O)(=O)c4cccc(F)c4)cc3)cn12,inactive
4,NS(=O)(=O)c1cccc(NC(=O)Nc2ccc(Cl)cc2)c1,"inconclusive [inhibitor, single point]"
5,COC(=O)C1CCN(C(=O)COc2ccc(S(=O)(=O)N3CCOCC3)cc2Cl)CC1,inactive
6,O=C(Nc1ccccc1)C1=C[C@@H](c2ccc(Br)cc2)C[C@@H](OCCCCO)O1,"inconclusive [inhibitor, single point]"
7,CN(CC(=O)Nc1ccccc1Br)C(=O)c1ccc2c(=O)n3c(nc2c1)CCC3,inactive
8,COc1ccc(Nc2c(-c3cccc(OC)c3)nc3nc(C)cc(C)n23)cc1,inactive
9,O=C1c2ccccc2C(=O)N1CCCCSc1nc2ccccc2c(=O)n1CCCN1CCOCC1,"inconclusive [inhibitor, partial curve, poor fit]"
10,O=C(CN1C(=O)CC(c2ccco2)Sc2ccccc21)Nc1cccc(C(F)(F)F)c1 (centres undefined),"inconclusive [inhibitor, single point]"
11,C/C(=N\Nc1nc2ccccc2[nH]1)c1ccc(Cl)s1,"inconclusive [inhibitor, partial curve, poor fit]"
12,N#CC1=C(N2CCOCC2)/C(=C\c2ccccc2)CC1,"inconclusive [inhibitor, single point]"
13,CCCN(C(=O)COC(=O)c1[nH]c(C)c(C(=O)OC)c1C)c1c(N)n(Cc2ccccc2)c(=O)[nH]c1=O,inactive
14,O=c1c2ccccc2nc2n1CCCN2,inactive
15,C=CCOC(=O)C1=C[C@H](c2ccc(Br)cc2)[C@@H](CCCO)[C@H](OCC)O1,"inconclusive [inhibitor, partial curve]"
16,O=C(Nc1nc2ccccc2[nH]1)c1ccccc1OC(F)F,"inconclusive [inhibitor, partial curve, poor fit]"
17,O=C(c1ccccc1F)N(Cc1ccccc1)Cc1ccccc1,"inconclusive [inhibitor, partial curve, poor fit]"
18,C=C(Br)Cn1c(CC(C)C)nc2ccccc21,"inconclusive [inhibitor, full curve, poor fit]"
19,CCOC(=O)C1CCN(C(=S)Nc2cc(C)ccc2C)CC1,inactive
20,OCCCN=c1cc(-c2ccccc2)oc2ccc(Cl)cc12,"inconclusive [inhibitor, single point]"
21,CCN(CC)S(=O)(=O)c1ccc(Cl)c(C(=O)N2CCc3ccccc32)c1,"inconclusive [inhibitor, full curve]"
22,COc1cccc(-n2nnc3c(=O)n(C/C=C/c4ccccc4)cnc32)c1,"inconclusive [inhibitor, single point]"

row,SMILES,Potency
1,CC(=O)Nc1ccc(Nc2c3ccccc3nc3ccccc23)cc1,"inconclusive [inhibitor, partial curve, poor fit]"
2,O=[N+]([O-])c1ccc(NCCc2ccccc2)c(Br)c1,"inconclusive [inhibitor, single point]"
3,COc1ccc(S(=O)(=O)Nc2ccc(F)c(Cl)c2)cc1OC,"inconclusive [inhibitor, single point]"
4,COc1ccccc1N(CC(O)COc1c(C)cc(C)cc1C)S(=O)(=O)c1ccccc1 (centres undefined),"inconclusive [inhibitor, single point]"
5,Brc1ccc(-c2cn3c(n2)SCC3)cc1,"inconclusive [inhibitor, single point]"
6,CCC(Oc1ccccc1)C(=O)Nc1cc(Cl)ccc1-n1cncn1 (centres undefined),"inconclusive [inhibitor, single point]"
7,O=C(COC(=O)/C=C/c1ccc2c(c1)OCO2)NCc1ccccc1,inactive
8,Cc1ccc(/C=C/S(=O)(=O)NCC(=O)OCC(=O)Nc2ccc(C(N)=O)cc2)cc1,inactive
9,Cc1c(Cc2ccccc2)sc(/N=C/c2c(O)ccc3ccccc23)c1C(N)=O,"inconclusive [inhibitor, single point]"
10,CC(C)(C)c1ccc(OCC(=O)NNC(=S)NC(=O)c2ccco2)c(Br)c1,inactive
11,Cc1ccccc1NC(=O)c1c(Cl)nc(C)c(Cl)c1C,inactive
12,Cc1cccc(NC(=O)C23CCC(C)(C2Br)C3(C)C)c1 (centres undefined),active: 3.55 µM
13,COc1ccc(NC(=O)Nc2ccc(F)cc2F)c(C)c1,inactive
14,Cc1cccc(N2C(=O)CN(Cc3sccc3C)C2=S)c1,"inconclusive [inhibitor, single point]"
15,CC(=O)NC(NC(=S)Nc1ccc(N=Nc2ccccc2)cc1)C(Cl)(Cl)Cl (centres undefined),"inconclusive [inhibitor, full curve, poor fit]"
16,CC(=O)c1cccc(NC(=S)N2CCC(Cc3ccccc3)CC2)c1,"inconclusive [inhibitor, partial curve]"
17,Cc1nc2c3cc(F)ccc3n(Cc3ccc(F)cc3)c2s1,"inconclusive [inhibitor, full curve]"
18,COc1ccc(S(=O)(=O)Nc2cccc(-c3ccc(N4CCCCCC4)nn3)c2)cc1F,"inconclusive [inhibitor, single point]"
19,S=C1NC2(CCCCC2)Cc2ccccc21,"inconclusive [inhibitor, single point]"
20,CCc1ccc(CNC(=O)c2cnc(N3CCCCC3)c3ccccc23)cc1,"inconclusive [inhibitor, partial curve, poor fit]"
21,CN1CCN(NC(=O)c2cn(-c3ccccc3)nc2-c2ccc(OC(F)F)cc2)CC1,"inconclusive [inhibitor, partial curve, poor fit]"
22,O=C(Oc1ccc(N(Cc2cccs2)C2=NS(=O)(=O)c3ccccc32)cc1)c1ccc(Cl)cc1,"inconclusive [inhibitor, single point]"
